Test results reported in patent publication US9234216B2, “Variant CBH I polypeptides” (BP Corporation North America Inc., priority 2011, dated 2016).

B1: SEQ ID NO: 11, 12: BD29555 CBH I variant: H497S (protein)
chain: MSALNSFNMYKSALILGSLLATAGAQQIGTYTAETHPSLSWSTCKSGGSCTTNSGAITLDANWRWVHGVNTSTNCYTGNTWNTAICDTDASCAQDCALDGADYSGTYGITTSGNSLRLNFVTGSNVGSRTYLMADNTHYQIFDLLNQEFTFTVDVSHLPCGLNGALYFVTMDADGGVSKYPNNKAGAQYGVGYCDSQCPRDLKFIAGQANVEGWTPSSNNANTGLGNHGACCAELDIWEANSISEALTPHPCDTPGLSVCTTDACGGTYSSDRYAGTCDPDGCDFNPYRLGVTDFYGSGKTVDTTKPITVVTQFVTDDGTSTGTLSEIRRYYVQNGVVIPQPSSKISGVSGNVINSDFCDAEISTFGETASFSKHGGLAKMGAGMEAGMVLVMSLWDDYSVNMLWLDSTYPTNATGTPGAARGSCPTTSGDPKTVESQSGSSYVTFSDIRVGPFNSTFSGGSSTGGSSTTTASGTTTTKASSTSTSSTSTGTGVAASWGQCGGQGWTGPTTCASGTTCTVVNPYYSQCL
B2: SEQ ID NO: 55, 56: BD29555 CBH I variant: N455G (protein)
chain: B1 chain with N455G, S497H
B3: SEQ ID NO: 31, 32: BD29555 CBH I variant: T324R (protein)
chain: B1 chain with T324R, S497H
B4: SEQ ID NO: 39, 40: BD29555 CBH I variant: K45R, T293A, S350C (protein)
chain: B1 chain with K45R, T293A, S350C, S497H
B5: SEQ ID NO: 41, 42: BD29555 CBH I variant: G351D (protein)
chain: B1 chain with G351D, S497H
B6: SEQ ID NO: 19, 20: BD29555 CBH I variant: H157G (protein)
chain: B1 chain with H157G, S497H
B7: SEQ ID NO: 23, 24: BD29555 CBH I variant: N183A (protein)
chain: B1 chain with N183A, S497H
B8: SEQ ID NO: 53, 54: BD29555 CBH I variant: V451W (protein)
chain: B1 chain with V451W, S497H
B9: SEQ ID NO: 49, 50: BD29555 CBH I variant: G376R (protein)
chain: B1 chain with G376R, S497H
B10: SEQ ID NO: 35, 36: BD29555 CBH I variant: Q334S (protein)
chain: B1 chain with Q334S, S497H
B11: SEQ ID NO: 37, 38: BD29555 CBH I variant: K345D (protein)
chain: B1 chain with K345D, S497H
B12: SEQ ID NO: 13, 14: BD29555 CBH I variant: T510K (protein)
chain: B1 chain with S497H, T510K
B13: SEQ ID NO: 17, 18: BD29555 CBH I variant: G256I (protein)
chain: B1 chain with G256I, S497H
B14: SEQ ID NO: 27, 28: BD29555 CBH I variant: S218P, T316S (protein)
chain: B1 chain with S218P, T316S, S497H
B15: SEQ ID NO: 29, 30: BD29555 CBH I variant: D318Q, T322S, I363V (protein)
chain: B1 chain with D318Q, T322S, I363V, S497H
B16: SEQ ID NO: 47, 48: BD29555 CBH I variant: A370I (protein)
chain: B1 chain with A370I, S497H
B17: SEQ ID NO: 45, 46: BD29555 CBH I variant: F358L (protein)
chain: B1 chain with F358L, S497H
B18: SEQ ID NO: 21, 22: BD29555 CBH I variant: P159G (protein)
chain: B1 chain with P159G, S497H
B19: SEQ ID NO25, 26: BD29555 CBH I variant: S156G (protein)
chain: B1 chain with S156G, S497H
B20: SEQ ID NO: 51, 52: BD29555 CBH I variant: E386S (protein)
chain: B1 chain with E386S, S497H
B21: SEQ ID NO: 43, 44: BD29555 CBH I variant: N352V (protein)
chain: B1 chain with N352V, S497H
B22: SEQ ID NO: 57, 58: BD29555 CBH I variant: S463K (protein)
chain: B1 chain with S463K, S497H
B23: SEQ ID NO: 15, 16: BD29555 CBH I variant: D87L (protein)
chain: B1 chain with D87L, S497H
B24: SEQ ID NO: 33, 34: BD29555 CBH I variant: S326L (protein)
chain: B1 chain with S326L, S497H

Assay: Saccharification of pretreated bagasse by CBHI variants in a cocktail with CBHII and EG
Assay type: biochemical
Details: Table 2; for % improvement over WT @ 48 hr: 5% w/v pretreated bagasse, 35° C., pH5.2, CBHI 4 mg/g cellulose, (% conversion of variant − % conversion of wt)/% conversion of wt; for Dose Reduction: method not described
Protocol: CBHI variants shown in Tables 1 and 5 were assayed under the following conditions: • 5% w/v pretreated bagasse (62.07% cellulose) • 35° C., 300 rpm shaking with 2 BBs per r×n • pH5.2 • 1 mM Sodium Azide • 5 ml total volume • Enzyme Dosing Overview:
• Time point: T=0, 48 hours • Time point (for Point Mutant Recombinants): T=0, 72 hours • % improvement over wt=(% conversion of variant−% conversion of wt)/ • % conversion of wt Results of these assays are shown in Tables 2 and 6. • CBHI variants shown in Table 3 were assayed under the following conditions: […]

| Molecule | % improvement over WT @ 48 hr | Dose Reduction |
| --- | --- | --- |
| B1 | 0.0% | 0.94X |
| B2 | 0.8% | 1X |
| B3 | 11.1% | 0.75X |
| B4 | 4.0% | 1X |
| B5 | 3.8% | 1X |
| B6 | 8.8% | 0.75X |
| B7 | 0.9% | 0.75X |
| B8 | 8.7% | 0.75X |
| B9 | 1.7% | 1X |
| B10 | 7.5% | 0.75X |
| B11 | 6.9% | 0.75X |
| B12 | 0.0% | 0.87X |
| B13 | 2.3% | 0.75X |
| B14 | 2.9% | 0.75X |
| B15 | 13.9% | 0.75X |
| B16 | 4.8% | 1X |
| B17 | 3.9% | 0.75X |
| B18 | 11.0% | 0.75X |
| B19 | 5.8% | 0.75X |
| B20 | 7.7% | 0.75X |
| B21 | 8.7% | 0.75X |
| B22 | 1.1% |  |
| B23 | 1.0% |  |
| B24 | 13.4% | 0.75X |

Changes are numbered by the printed parent chain. Numbers in names are those of the source.
